Measurements as given in PMC4336329 (PLoS ONE, 2015).
Hit rate of the full screen: of about 310,000 compounds, about 14,000 (4.5%) showed an effect of 50% or more. The effect is printed as a negative number. The list shows a part of the results.

target: human ether-à-go-go-related gene (hERG) potassium channel (human, UniProt Q12809); test: primary screen, population patch clamp on CHO cells stably expressing hERG
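Note: peak tail current of the secondary pulse compared with the same well before compound.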

Chain of human ether-à-go-go-related gene (hERG) potassium channel (Q12809 whole entry, looked up): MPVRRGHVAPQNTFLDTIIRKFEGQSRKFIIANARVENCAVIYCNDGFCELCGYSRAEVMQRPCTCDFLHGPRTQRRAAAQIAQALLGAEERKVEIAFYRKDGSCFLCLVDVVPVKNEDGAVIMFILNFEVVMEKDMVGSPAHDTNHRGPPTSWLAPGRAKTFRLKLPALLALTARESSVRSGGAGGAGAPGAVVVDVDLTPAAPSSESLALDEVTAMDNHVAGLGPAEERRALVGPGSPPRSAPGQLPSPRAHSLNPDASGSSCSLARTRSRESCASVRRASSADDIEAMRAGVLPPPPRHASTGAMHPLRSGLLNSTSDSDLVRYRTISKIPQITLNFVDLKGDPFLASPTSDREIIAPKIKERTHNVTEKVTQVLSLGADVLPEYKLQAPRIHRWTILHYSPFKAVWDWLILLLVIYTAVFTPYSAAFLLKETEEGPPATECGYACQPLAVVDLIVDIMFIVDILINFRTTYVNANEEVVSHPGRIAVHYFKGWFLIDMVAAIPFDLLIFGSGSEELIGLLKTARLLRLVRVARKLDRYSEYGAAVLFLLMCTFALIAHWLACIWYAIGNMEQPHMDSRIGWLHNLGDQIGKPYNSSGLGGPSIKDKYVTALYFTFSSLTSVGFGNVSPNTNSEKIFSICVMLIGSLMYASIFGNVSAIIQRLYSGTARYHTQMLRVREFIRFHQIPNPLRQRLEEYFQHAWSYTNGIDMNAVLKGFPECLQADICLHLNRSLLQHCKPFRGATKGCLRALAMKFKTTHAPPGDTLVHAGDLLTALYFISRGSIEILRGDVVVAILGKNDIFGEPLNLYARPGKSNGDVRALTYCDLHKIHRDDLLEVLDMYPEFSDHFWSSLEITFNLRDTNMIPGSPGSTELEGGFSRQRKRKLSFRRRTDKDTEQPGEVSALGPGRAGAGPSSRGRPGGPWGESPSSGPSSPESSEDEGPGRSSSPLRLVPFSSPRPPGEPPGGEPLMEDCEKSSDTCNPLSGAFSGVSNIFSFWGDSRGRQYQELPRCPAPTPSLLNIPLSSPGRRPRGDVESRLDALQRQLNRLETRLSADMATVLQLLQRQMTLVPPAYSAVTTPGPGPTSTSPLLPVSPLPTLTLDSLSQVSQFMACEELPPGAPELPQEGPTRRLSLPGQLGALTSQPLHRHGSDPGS

Row | SMILES | hERG current change (%, negative = inhibition) at 10uM [%]
1 | Clc1cccc(CNCCNCc2cccc(Cl)c2)c1 | -46.2
2 | COc1ccccc1-n1c(CNCC2CCCO2)nc2ccccc2c1=O (stereo not shown) | -8.61
3 | COc1ccccc1N(C)S(=O)(=O)c1ccc(C(=O)N(C)Cc2ccc(Cl)s2)cc1 | -18.5
4 | CN(C)c1ccc(Sc2nnc(NC(=O)Nc3ccc(Cl)cc3Cl)s2)cc1 | 12.2
5 | C/C(=N\N=C\c1ccc(N(C)C)cc1)c1cccc([N+](=O)[O-])c1 | 1.88
6 | COc1ccccc1CN1CCNC(=O)C1CC(=O)N(C)CC1CCOCC1 (stereo not shown) | 21.3
7 | CCCCc1cc(=O)oc2cc(C)cc(OCC(=O)N3CCC(C(=O)O)CC3)c12 | 13.2
8 | CCCC(=O)Nc1cc(C)cn(Cc2c(F)cccc2Cl)c1=O | 0.776
9 | C[C@@H](O)c1nc2ccccc2n1N | 9.12
10 | COc1ccc(Cl)cc1NS(=O)(=O)c1ccc(S(=O)(=O)N2CCCC2)cc1 | -14.2
11 | O=C(Nc1ccc(Cl)cc1F)C1CC1c1ccccc1 (stereo not shown) | 12.6
12 | Cc1c(C(=O)Cc2ccccc2)n(C)c2ccccc12 | 10.8
13 | Cc1csc(NC(=O)C2=COCCO2)n1 | 8.14
14 | CC(=O)c1nc(-c2ccccc2)sc1C | 4.79
15 | O=[N+]([O-])c1cc(C(F)(F)F)cc([N+](=O)[O-])c1NCCN1CCNCC1 | 4.88
16 | O=C(Nc1ccc(-c2nnco2)cc1)c1ccccc1 | 12.4
17 | CC(=O)Nc1ccc(NS(=O)(=O)c2cc([N+](=O)[O-])ccc2C)cc1 | -7.26
18 | Cc1ccc2[nH]c(-c3cccc(N)c3)cc2c1 | 18.4
19 | O=C(Nc1ccc(-c2cn3ccccc3n2)cc1)c1cccs1 | 7.11
20 | CCCCc1cc(=O)oc2cc(OCC(=O)Nc3cccnc3)c(Cl)cc12 | 17.1
21 | Cc1ccc(NCc2ccccc2OCc2ccccc2F)cc1 | 14
22 | COc1ccc(Br)cc1S(=O)(=O)N1CCCc2ccccc21 | 7.2
23 | CCN1CCCC1CNC(=O)C(=O)NCc1ccccc1 (stereo not shown) | -11.6

Row | SMILES | hERG current change (%, negative = inhibition) at 10uM [%]
24 | C[C@@H](Nc1nc(-c2ccccc2)nc2c1oc1ccccc12)C(=O)O | 8.49
25 | CC(C)(C)NC(=O)C(c1ccccc1)N(Cc1cccs1)C(=O)c1csnn1 (stereo not shown) | -5.27
26 | COc1cc(NC(=O)CSc2nc3[nH]c(=O)cc(O)c3s2)cc(OC)c1OC | 11.2
27 | CCOc1cc(/C=N/NC(=O)c2ccccn2)ccc1OC(=O)c1cccs1 | 3.92
28 | COCCN(C(=O)CCC(=O)Nc1nccs1)C(C(=O)NCCC(C)C)c1ccc(OC)cc1 (stereo not shown) | -2.09
29 | Fc1ccc(-c2cc(C(F)(F)F)nc(-n3cc(Cl)cn3)n2)cc1 | -3.04
30 | O=C1c2oc3ccccc3c(=O)c2C(c2ccccn2)N1Cc1ccccc1 (stereo not shown) | 5.53
31 | CC(NC(=O)c1cccnc1)c1ccc2c(c1)OCO2 (stereo not shown) | 2.4
32 | CCOC(=O)c1c(N)n[nH]c1-c1ccc(OC)cc1 | -5.63
33 | CCn1cc(S(=O)(=O)CC(=O)Nc2ccc(OC)cc2)c2ccccc21 | 3.79
34 | O=C(Nc1ccccc1C(=O)OCc1nnc(-c2ccccc2)o1)c1ccco1 | -36.6
35 | Cc1ccc(CN(C(=O)c2ccco2)C2CCS(=O)(=O)C2)cc1 (stereo not shown) | -7.1
36 | Cc1c(C)c2ccc(OCC(=O)Nc3ccc(N4CCC(C)CC4)cc3)cc2oc1=O | 14.7
37 | CCOc1ccc(NC(c2ccccn2)c2oc(CO)cc(=O)c2O)cc1 (stereo not shown) | 5.43
38 | O=C(Cc1nc2ccccc2[nH]1)c1ccc(Cl)cc1 | -1.59
39 | CCCNc1cc(C)oc(=O)c1C(=O)CC | 14.5
40 | N#Cc1c(C(F)(F)F)cc(-c2ccco2)nc1SCc1ccncc1 | -5.81
41 | Cc1cc(=O)[nH]c(N/N=C/c2ccc(F)cc2)n1 | -8.55
42 | Cc1cc(C)n2c(=O)c3ccc(Cl)cc3nc2c1C#N | 0.487
43 | O=C(CCS(=O)(=O)Cc1ccccc1)N1CCN(c2ccccc2)CC1 | -7.79
44 | COc1ccc(-c2cc(CNS(=O)(=O)c3cc(OC)ccc3OC)on2)cc1 | 6.1
45 | COc1ccc(C)cc1S(=O)(=O)NC(C)C(=O)Nc1ccc2c(c1)OCO2 (stereo not shown) | 2.08
46 | Cc1ccc(-n2c(CNc3ccc(F)cc3)nnc2SCC(N)=O)cc1 | -32.1

Row | SMILES | hERG current change (%, negative = inhibition) at 10uM [%]
47 | O=S(=O)(c1ccc(Br)s1)N1CCCCC1 | -4.03
48 | CCOc1ccc(N(CC(=O)NCCCOC)S(C)(=O)=O)cc1 | 4.53
49 | C=C(C)Cn1c(=O)c2c(nc3n2CCCN3CCc2ccccc2)n(C)c1=O | -73.3
50 | O=C(Nc1ccccc1)Nc1cccc2ccccc12 | 13.4
51 | CC1CCC(=O)N(CCOc2ccccc2)CC1 (stereo not shown) | -13.8
52 | COc1ccc(N2CCN(C(=S)Nc3ccc(F)cc3)CC2)cc1 | 16.3
53 | CC1CC(C)CN(S(=O)(=O)c2cccc3nonc23)C1 (stereo not shown) | 4.47
54 | COc1cc(C2C(C(C)=O)=C(O)C(=O)N2c2ccc(C)cc2)ccc1O (stereo not shown) | 17
55 | CC(C)NC(=O)NC(=O)CSc1nncn1C | -25.9
56 | C/C(=N\N=C1\NC(=O)C(CC(=O)Nc2ccccc2F)S1)C1CCCCC1 (stereo not shown) | -10.5
57 | CCCCn1c(SCc2cccnc2)nc2c1c(=O)n(C)c(=O)n2C | -28
58 | COc1ccc(C(C)(C)C)cc1NC(=O)COC(=O)C1=NNC(=O)CC1 | 5.4
59 | O=C(CSc1nnnn1-c1ccc(F)cc1)Nc1ccccc1F | 16
60 | CCOC(=O)c1nnn(-c2nonc2N)c1CN(C)Cc1ccccc1 | -3.78
61 | CCOc1ccc2oc(C(=O)N3CCN(c4ccccn4)CC3)c(C)c2c1 | -34.3
62 | O=C(NC1CCCC1)c1ccc(Cl)c(S(=O)(=O)N2CCOCC2)c1 | -27.2
63 | CC(NC(=O)Nc1cccnc1)(C(F)(F)F)C(F)(F)F | 5.1
64 | CN1CCN(c2ccc(F)cc2N)CC1 | 23.3
65 | C=CCn1c(SCc2ccc(C(=O)Nc3ccccc3)cc2)nnc1-c1ccccc1 | -5.06
66 | CCCN1C(=O)c2ccccc2NC1c1ccc(Cl)c(Cl)c1 (stereo not shown) | 6.85
67 | Nn1c(SCC(=O)NC(=O)Nc2ccc3c(c2)OCCO3)nnc1C1CC1 | 14.3
68 | CCC(C)NS(=O)(=O)c1ccc(OCC(=O)N2CCCCC2)cc1 (stereo not shown) | 2.66
69 | Cc1ccc(O)c(-c2cc(C(=O)Nc3ccc(S(=O)(=O)Nc4nccc(C)n4)cc3)[nH]n2)c1 | 6.81

Row | SMILES | hERG current change (%, negative = inhibition) at 10uM [%]
70 | O=C(Nc1ccc2oc(-c3ccncc3)nc2c1)c1ccc(F)cc1 | -23.9
71 | COc1ccc(CCNC(=O)Cn2nnc(C(=O)Nc3cccc(C)c3C)c2N)cc1OC | 12.9
72 | CC(=O)Nc1ccc(S(=O)(=O)N2CCN(CCC#N)CC2)cc1 | 17.2
73 | CCn1cc(/C=C(\NC(=O)c2ccc(OC)c(OC)c2)C(=O)N2CCN(C)CC2)c2ccccc21 | -32.8
74 | C/C(=N\OCc1nc2ccccc2c(=O)n1/N=C/c1cc([N+](=O)[O-])ccc1O)c1ccccc1 | 1.69
75 | CCN(C(=O)CSc1nnc(-c2ccccc2Br)o1)C1CCS(=O)(=O)C1 (stereo not shown) | -16.3
76 | Cc1ccsc1C(=O)N(C)C1CCS(=O)(=O)C1 (stereo not shown) | -1.25
77 | Cc1ccc(-c2nnc(SCC(=O)N/N=C/c3ccc(C(=O)O)cc3)n2C2CCCCC2)cc1 | 13.4
78 | CCC1CCCCN1S(=O)(=O)c1ccc(NC(=O)C2CCCO2)cc1 (stereo not shown) | -8.34
79 | Cc1cc(N2C(=O)C(O)=C(C(=O)c3cccs3)C2c2ccccc2)no1 (stereo not shown) | -5.34
80 | CCCc1nnc(NC(=O)CC(C)c2ccccc2)s1 (stereo not shown) | 2.66
81 | Cc1nc(-c2ccncc2)nc(NCCNc2ncccc2C(F)(F)F)c1Cl | 6.57
82 | COc1cc(/C=C2\SC(=O)NC2=O)ccc1OCc1ccc(Cl)nc1 | 26.2
83 | CCOC(=O)c1nc(N)c(=O)n(-c2ccc(C)cc2)n1 | 17.8
84 | CN(C(=O)Cn1c(=O)oc2cc(S(=O)(=O)N3CCCC3)ccc21)C1CCCCC1 | 37.1
85 | CS(=O)(=O)N1CCCC(C(=O)Nc2ccc(F)c(F)c2)C1 (stereo not shown) | 9.55
86 | Cc1ccc(C(=O)N/C(=C\c2ccccc2)C(=O)NCc2ccncc2)cc1 | -71.2
87 | COc1cc(S(=O)(=O)Nc2cc(C)cc(C)c2)ccc1F | -48.3
88 | CCN(CC)C(=O)CSc1ncnc2c(-c3cccs3)nsc12 | 4.67
89 | CN(C)S(=O)(=O)c1ccc(NC(=O)c2c(F)cccc2Cl)cc1 | -0.755
90 | O=c1oc(Nc2cccc(F)c2)nc2ccccc12 | 2.1
91 | Cc1ccc(C)c2[nH]c(=O)c(CN(CCN3CCOCC3)Cc3nnnn3CC3CCCO3)cc12 (stereo not shown) | -15.8
